In the RNAGym collection of RNA variant scans (doi:10.1093/nar/gkz1192):
Read counts are not given, so values of variants with three or more changes are uncertain.

B1: CPEB3 Ribozyme (parent)
chain: UAACAGGGGGCCACAGCAGAAGCGUUCACGUCGCAGCCCCUGUCAGAUUCUGGUGAAUCUGCGAAUUCUGCUGUAUAUCUC

Variants of: B1
Assay: self-cleavage, relative activity (ratio to wild type); higher = more cleavage; in vitro, sequencing
Procedure, shortened: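 Barcoded CPEB3 ribozyme mutants, produced by rounds of error-prone PCR, self-cleaved while being transcribed with T7 RNA polymerase for 5 hours at 37°C and during a subsequent 15 min DNase I step before EDTA was added. Sequencing of template-switched cDNA on Illumina gave cleaved and total reads, and DNA sequencing assigned barcodes to variants. Each variant's relative activity is its cleaved/total read fraction divided by the unmutated ribozyme's fraction, averaged across three batches. A variant needed a minimum of 5 reads.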

| Variant | self-cleavage |
| --- | --- |
| A5G A18U U31A U51G A56U | 0.29 |
| A5G A18U U41A G42A | 0.05 |
| A5G A18U U43A | 0.53 |
| A5G A18U U58G U60A | 0.09 |
| A5G A18U U69A U76C | 0.85 |
| A5G A20G A21G A56G U60C G61C | 0.06 |
| A5G A20G A21G U25C A65G | 0.51 |
| A5G A20G A28C G52A | 0.38 |
| A5G A20G A28C U51A G55U U72C | 0.06 |
| A5G A20G A28G C38U U43C U49C U54A | 0.03 |
| A5G A20G A28G U41C U43A | 0.5 |
| A5G A20G A35C A56G U78C | 0.15 |
| A5G A20G A35U U67C | 0.61 |
| A5G A20G A35U U76C | 0.16 |
| A5G A20G A45G A57U U66C U72A | 0.08 |
| A5G A20G A75U | 0.95 |
| A5G A20G C29A | 0.09 |
| A5G A20G C32G C39U U58C U76A A77G | 0.1 |
| A5G A20G C38G U51C U72C | 0.09 |
| A5G A20G C39G U60C | 0.33 |
| A5G A20G C71U | 0.22 |
| A5G A20G G22A G24A U26A U41A A57G | 0.08 |
| A5G A20G G24A A28G U31C U41C U67A | 0.24 |
| A5G A20G G30A U43C U49A | 0.36 |

| Variant | self-cleavage |
| --- | --- |
| A5G A20G G30A U58C U60A | 0.12 |
| A5G A20G G63C A64G U80C | 0.31 |
| A5G A20G U26A A28G G52U U69A | 0.06 |
| A5G A20G U41A A64U U78C | 0.04 |
| A5G A20G U41A U49C A57G A64U | 0.06 |
| A5G A20G U41C U43A A47G U49C U66C | 0.3 |
| A5G A20G U48G | 0.27 |
| A5G A20G U49C A56G U69A | 0.18 |
| A5G A20G U49C U51A A65G U66C U72A | 0.14 |
| A5G A20G U54C | 0.58 |
| A5G A20G U66C | 0.35 |
| A5G A20G U66C U80C | 0.07 |
| A5G A20G U69C | 0.33 |
| A5G A20G U78G | 0.27 |
| A5G A20U A35G U67G | 0.72 |
| A5G A20U A45C A64G | 0.2 |
| A5G A20U A45U U69G | 0.04 |
| A5G A20U A56U U78C | 0.2 |
| A5G A20U C23A U58A | 0.29 |
| A5G A20U C29U U72A | 0.21 |
| A5G A20U G36A U74C | 0.1 |
| A5G A20U G52A U72A | 0.11 |
| A5G A20U U25A U26A U69A | 0.09 |
| A5G A20U U41A U78C | 0.09 |

| Variant | self-cleavage |
| --- | --- |
| A5G A20U U41C U69C | 0 |
| A5G A20U U51C U72G | 0.1 |
| A5G A20U U76C | 0.39 |
| A5G A21C A45G U58C | 0.28 |
| A5G A21C U31C U54C U72C | 0.24 |
| A5G A21G A45G | 0.26 |
| A5G A21G A45G U80C | 0.3 |
| A5G A21G A64G U66C U67C | 0.17 |
| A5G A21G A64U U72C | 0.34 |
| A5G A21G C37U | 0.41 |
| A5G A21G C68G | 0.49 |
| A5G A21G G22C | 0.41 |
| A5G A21G G33C C44A U51G A65G | 0.06 |
| A5G A21G G73A U80A | 0.9 |
| A5G A21G U25C G30A C40U U43A U60C | 0.04 |
| A5G A21G U25G G36U A57G | 0.07 |
| A5G A21G U26A A35G C38U U43C | 0.09 |
| A5G A21G U26A U51C A64U A65U | 0.19 |
| A5G A21G U26C A47U | 0.52 |
| A5G A21G U26C U48C | 0.05 |
| A5G A21G U26C U72C | 0.15 |
| A5G A21G U41A A56U | 0.37 |
| A5G A21G U48C U67C | 0.22 |
| A5G A21G U51A | 0.13 |

| Variant | self-cleavage |
| --- | --- |
| A5G A21G U51A U60C | 0.09 |
| A5G A21G U60C U69C U72A | 0.33 |
| A5G A21G U67C | 0.13 |
| A5G A21G U69C G70A | 0.18 |
| A5G A21G U80C | 0.58 |
| A5G A21U A28G U31C U48A C50U | 0.11 |
| A5G A21U A57U G73A | 0.62 |
| A5G A21U G24A U25C | 0.41 |
| A5G A21U G24A U25C U72C | 0.09 |
| A5G A21U U26C C37G U51C | 0.07 |
| A5G A28C U31C G33A A64G | 0.2 |
| A5G A28C U80G | 0.32 |
| A5G A28G A35U U60C | 0.26 |
| A5G A28G A45G U66C | 0.22 |
| A5G A28G A47G A56G | 0.33 |
| A5G A28G A56G U58A A65G U66C U78C | 0 |
| A5G A28G C29U U60G A77G | 0.09 |
| A5G A28G C40U U41C U69C C79A | 0.09 |
| A5G A28G G30A C38A A47U A65U | 0.11 |
| A5G A28G G33U U72C | 0.22 |
| A5G A28G G53A A57G | 0.15 |
| A5G A28G U31A C71A U74C | 0.17 |
| A5G A28G U41C A65G | 0.45 |
| A5G A28G U41G U80A | 0.45 |

| Variant | self-cleavage |
| --- | --- |
| A5G A28G U43C U67C U78A | 0.08 |
| A5G A28G U43C U67C U80A | 0.05 |
| A5G A28G U49G | 0.1 |
| A5G A28G U54C A64G U76C U78C | 0.42 |
| A5G A28G U60A | 0.46 |
| A5G A28G U67A | 0.5 |
| A5G A28G U67C | 0.12 |
| A5G A28U A35G | 1.26 |
| A5G A28U A35G A64G U78C | 1.03 |
| A5G A28U A35G U41A A64U | 0.15 |
| A5G A28U A35U C40A U43C U67A U69C | 0.04 |
| A5G A28U A56G U60C U80C | 0.1 |
| A5G A28U A65G | 0.33 |
| A5G A28U G36A U54C | 0.33 |
| A5G A28U U31A U41A C50A | 0.08 |
| A5G A28U U41C U60A | 0.17 |
| A5G A28U U48C U51C U72A | 0.37 |
| A5G A28U U78A | 0.89 |
| A5G A35G A45C U48C U51A | 0.3 |
| A5G A35G A45G A56G U58C A75U U78C | 0.25 |
| A5G A35G A47G U60A U80C | 0.68 |
| A5G A35G A56G C68A | 0.61 |
| A5G A35G A57U U60C | 0.16 |
| A5G A35G A64U | 0.42 |

| Variant | self-cleavage |
| --- | --- |
| A5G A35G C71U | 0.78 |
| A5G A35G G36A A77G U78C | 0.42 |
| A5G A35G G63A | 1.11 |
| A5G A35G U43C A56U | 0.38 |
| A5G A35G U48C G52C U72C | 0.5 |
| A5G A35G U51C U60C | 0.33 |
| A5G A35G U60A U74G | 0.97 |
| A5G A35G U80C | 1.19 |
| A5G A35U A45G U49C | 0.29 |
| A5G A35U A45U | 0.24 |
| A5G A35U A56G U66C | 0.18 |
| A5G A35U A64U | 0.18 |
| A5G A35U U49A U58A U60C C62U U80A | 0.05 |
| A5G A35U U58G U80A | 0.13 |
| A5G A45C A57U U58A | 0.45 |
| A5G A45C U67C | 0.09 |
| A5G A45G U60A | 0.36 |
| A5G A45G U78C | 0.46 |
| A5G A45U A47G | 0.31 |
| A5G A45U A47G A65G U67A | 0 |
| A5G A45U A64U A75U | 0.28 |
| A5G A45U A75U | 0.58 |
| A5G A45U U51A U58C U74A | 0.27 |
| A5G A45U U54C U60A | 0.69 |

| Variant | self-cleavage |
| --- | --- |
| A5G A45U U69C | 0.18 |
| A5G A45U U78C | 0.41 |
| A5G A47G G70U | 0.22 |
| A5G A47G U48C C81U | 0.38 |
| A5G A47G U69A | 0.59 |
| A5G A47G U69A U72C | 0.31 |
| A5G A47G U80C | 0.81 |
| A5G A47U U48C U67A U78C | 0.14 |
| A5G A56C U74C U80C | 0.27 |
| A5G A56G A57U A77G | 0.14 |
| A5G A56G A64G | 0.49 |
| A5G A56G A64G U72A U80C | 0.65 |
| A5G A56G A65G U66C | 0.27 |
| A5G A56G C79U | 0.29 |
| A5G A56G U74C | 1.07 |
| A5G A56G U80A | 0.84 |
| A5G A56U A64C U66C | 0.12 |
| A5G A56U U58A U60C U67C | 0.08 |
| A5G A56U U67C U72A | 0.14 |
| A5G A56U U78A U80A | 0.44 |
| A5G A57G A65G | 0.33 |
| A5G A57G C68A U72C A77G C79G | 0.14 |
| A5G A57G U58A C71U | 0.43 |
